From the supplement of paper PMC8728848
Some of the results follow.

How the values were obtained:
Assay in all cases: glycan array binding signal (z-score within array); higher = stronger binding
Conditions in all cases: glycan notation: IUPAC condensed, linker removed
[1] = molecular target: Gal(b1-4)GalNAc(b1-3)[Fuc(a1-2)]Gal(b1-4)GlcNAc
Procedure, shortened: (§1)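 Arrays were curated from the Consortium for Functional Glycomics database, 3228 in total, and kept only where the protein sequence was available. Binding is expressed as a within-array Z-score. This score was averaged across arrays of the same protein sequence at different concentrations or buffers and across linkers, and negative values can be read as non-binding.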

Gal(b1-4)Glc = molecular target: Gal(b1-4)Glc
Procedure, shortened: as §1

Gal(b1-4)Glc6S = molecular target: Gal(b1-4)Glc6S
Procedure, shortened: as §1

Gal(b1-4)GlcNAc = molecular target: Gal(b1-4)GlcNAc
Procedure, shortened: as §1

[2] = molecular target: Gal(b1-4)GlcNAc(a1-6)Gal(b1-4)GlcNAc
Procedure, shortened: as §1

Gal(b1-4)GlcNAc(b1-2)Man = molecular target: Gal(b1-4)GlcNAc(b1-2)Man
Procedure, shortened: as §1

[3] = molecular target: Gal(b1-4)GlcNAc(b1-2)Man(a1-3)Man(b1-4)GlcNAc(b1-4)GlcNAc
Procedure, shortened: as §1

[4] = molecular target: Gal(b1-4)GlcNAc(b1-2)Man(a1-3)[Gal(b1-4)GlcNAc(b1-2)Man(a1-6)]Man(b1-4)GlcNAc(b1-4)GlcNAc
Procedure, shortened: as §1

[5] = molecular target: Gal(b1-4)GlcNAc(b1-2)Man(a1-3)[Gal(b1-4)GlcNAc(b1-2)Man(a1-6)]Man(b1-4)GlcNAc(b1-4)[Fuc(a1-6)]GlcNAc
Procedure, shortened: as §1

[6] = molecular target: Gal(b1-4)GlcNAc(b1-2)Man(a1-3)[Gal(b1-4)GlcNAc(b1-2)Man(a1-6)][Gal(b1-4)GlcNAc(b1-4)]Man(b1-4)GlcNAc(b1-4)[Fuc(a1-6)]GlcNAc
Procedure, shortened: as §1

[7] = molecular target: Gal(b1-4)GlcNAc(b1-2)Man(a1-3)[Gal(b1-4)GlcNAc(b1-2)Man(a1-6)][GlcNAc(b1-4)]Man(b1-4)GlcNAc(b1-4)[Fuc(a1-6)]GlcNAc
Procedure, shortened: as §1

[8] = molecular target: Gal(b1-4)GlcNAc(b1-2)Man(a1-3)[GlcNAc(b1-2)Man(a1-6)]Man(b1-4)GlcNAc(b1-4)GlcNAc
Procedure, shortened: as §1

[9] = molecular target: Gal(b1-4)GlcNAc(b1-2)Man(a1-3)[GlcNAc(b1-4)][Gal(b1-4)GlcNAc(b1-2)Man(a1-6)]Man(b1-4)GlcNAc(b1-4)GlcNAc
Procedure, shortened: as §1

[10] = molecular target: Gal(b1-4)GlcNAc(b1-2)Man(a1-3)[Man(a1-6)]Man(b1-4)GlcNAc(b1-4)GlcNAc
Procedure, shortened: as §1

[11] = molecular target: Gal(b1-4)GlcNAc(b1-2)Man(a1-6)Man(b1-4)GlcNAc(b1-4)GlcNAc
Procedure, shortened: as §1

[12] = molecular target: Gal(b1-4)GlcNAc(b1-2)Man(a1-6)[GlcNAc(b1-2)Man(a1-3)]Man(b1-4)GlcNAc(b1-4)GlcNAc
Procedure, shortened: as §1

[13] = molecular target: Gal(b1-4)GlcNAc(b1-2)Man(a1-6)[Man(a1-3)]Man(b1-4)GlcNAc(b1-4)GlcNAc
Procedure, shortened: as §1

[14] = molecular target: Gal(b1-4)GlcNAc(b1-2)[Gal(b1-4)GlcNAc(b1-4)]Man(a1-3)[Gal(b1-4)GlcNAc(b1-2)Man(a1-6)]Man(b1-4)GlcNAc(b1-4)GlcNAc
Procedure, shortened: as §1

[15] = molecular target: Gal(b1-4)GlcNAc(b1-2)[Gal(b1-4)GlcNAc(b1-4)]Man(a1-3)[Gal(b1-4)GlcNAc(b1-2)[Gal(b1-4)GlcNAc(b1-6)]Man(a1-6)]Man(b1-4)GlcNAc(b1-4)GlcNAc
Procedure, shortened: as §1

[16] = molecular target: Gal(b1-4)GlcNAc(b1-2)[Gal(b1-4)GlcNAc(b1-4)]Man(a1-3)[GlcNAc(b1-4)][Gal(b1-4)GlcNAc(b1-2)Man(a1-6)]Man(b1-4)GlcNAc(b1-4)GlcNAc
Procedure, shortened: as §1

[17] = molecular target: Gal(b1-4)GlcNAc(b1-2)[Gal(b1-4)GlcNAc(b1-4)]Man(a1-3)[GlcNAc(b1-4)][Gal(b1-4)GlcNAc(b1-2)[Gal(b1-4)GlcNAc(b1-6)]Man(a1-6)]Man(b1-4)GlcNAc(b1-4)GlcNAc
Procedure, shortened: as §1

[18] = molecular target: Gal(b1-4)GlcNAc(b1-2)[Gal(b1-4)GlcNAc(b1-6)]Man(a1-6)[Gal(b1-4)GlcNAc(b1-2)Man(a1-3)]Man(b1-4)GlcNAc(b1-4)GlcNAc
Procedure, shortened: as §1

B1: CAA (Caragana arborescens) (protein)
chain: VAVEFDTFDNPDWDPRTKHIGIDVNSIRSNKTTQWGFWNRQVADVDISYEASSKTLNVSLYYPGESYIVTDVVDLKDILPEWVRIGF
Question: Which results are given for B1?
Answer: glycan array binding signal (z-score) [1]: -0.227; glycan array binding signal (z-score) (Gal(b1-4)Glc): -0.246; glycan array binding signal (z-score) (Gal(b1-4)Glc6S): -0.231; glycan array binding signal (z-score) (Gal(b1-4)GlcNAc): -0.242; glycan array binding signal (z-score) [2]: -0.241; glycan array binding signal (z-score) (Gal(b1-4)GlcNAc(b1-2)Man): -0.253; glycan array binding signal (z-score) [3]: -0.223; glycan array binding signal (z-score) [4]: 4.25; glycan array binding signal (z-score) [5]: 2.28; glycan array binding signal (z-score) [6]: -0.244; glycan array binding signal (z-score) [7]: -0.244; glycan array binding signal (z-score) [8]: 3.58; glycan array binding signal (z-score) [9]: -0.106; glycan array binding signal (z-score) [10]: 3.48; glycan array binding signal (z-score) [11]: -0.245; glycan array binding signal (z-score) [12]: 5.87; glycan array binding signal (z-score) [13]: 0.121; glycan array binding signal (z-score) [14]: 3.5; glycan array binding signal (z-score) [15]: 3.15; glycan array binding signal (z-score) [16]: -0.239; glycan array binding signal (z-score) [17]: -0.252; glycan array binding signal (z-score) [18]: -0.049
